{"source": "PubChem BioAssay AID651820", "about": "(National Center for Advancing Translational Sciences (NCATS), 2012)", "note": "The whole screen tested about 340,000 compounds, of which about 12,000 (3.5%) were called active. This list was built around the results that the source calls inconclusive (neither active nor inactive); the mix of calls is not that of the screen. Calls follow the shape of the dose curve; as a rule, active = well fitted inhibition curve with a large enough effect; inconclusive = small, poorly fitted or top-dose-only effect, or another doubt; inactive = no such curve, though single readings can be large or run the other way. Potencies of inconclusive entries are left out as doubtful fits. % is scaled to controls: 0 for no effect and ±100 for the full control effect; potency is read from the fitted curve at half-maximal effect; tags tell the direction and shape of the fitted curve."}
{"assay": "qHTS Assay for Inhibitors of Hepatitis C Virus (HCV)", "details": "Huh7.5.1 HCVcc-Cre (HCVcc is cell-culture hepatitis C virus) infection, luciferase reporter, 44 h; activity change, negative = inhibition: at 41.8 µM (top of the series) unless noted", "outline": "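Cells seeded at 1,000/well and cultured 4 h, then compounds added followed by HCVcc-Cre virus (~0.5 moi). After 44 h further culture, luciferase substrate was added, plates held 15 min at room temperature, and luminescence read for 15 sec.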"}
{"smiles": "COc1ccc(OC)c(C(=O)COC(=O)c2ccc(C)o2)c1", "Potency": "inconclusive [inhibitor, partial curve]"}
{"smiles": "C/C(=N\\NC(=O)c1ccc(O)cc1)c1cc2ccccc2o1", "Potency": "inconclusive [inhibitor, single point]"}
{"smiles": "COc1ccc(-c2cn3ccc4ccccc4c3n2)cc1", "Potency": "inconclusive [inhibitor, single point]"}
{"smiles": "CSc1cccc(NC(=S)N(CCC(C)C)C2CCN(C(C)C)CC2)c1", "Potency": "inconclusive [inhibitor, partial curve]"}
{"smiles": "C=CCN1C(=O)c2ccc(C(=O)N3CCN(S(=O)(=O)c4cccc([N+](=O)[O-])c4)CC3)cc2C1=O", "activity change, negative = inhibition": "inactive: 15%"}
{"smiles": "O=c1c2ccccc2sn1-c1cc(S(=O)(=O)N2CCOCC2)ccc1N1CCOCC1", "Potency": "inconclusive [inhibitor, single point]"}
{"smiles": "Cn1c(-c2ccsc2)c(-c2cccs2)c2cc(-c3ccc4cc[nH]c4c3)ccc21", "Potency": "active: 1.12 µM"}
{"smiles": "COc1cc(C2c3cc4c(cc3OC(N3CCCCC3)C2C)OCO4)cc(OC)c1O", "note": "(stereo not given)", "activity change, negative = inhibition": "inactive: -15.6%"}
{"smiles": "CC1(C)Cc2c(sc(NC(=O)COc3ccc(Cl)cc3)c2C#N)C(C)(C)N1", "Potency": "inconclusive [inhibitor, partial curve]"}
{"smiles": "Cn1cccc1C(NC(=O)c1ccccc1)C(Cl)(Cl)Cl", "note": "(stereo not given)", "activity change, negative = inhibition": "inactive: 17.7%"}
{"smiles": "COc1ccc(C(=O)NC(=S)NNC(=O)c2ccc(NC(=O)C(C)C)cc2)cc1", "Potency": "active: 15.8 µM"}
{"smiles": "COc1ccccc1CNC(=O)N/C=C/c1ccc(Cl)cc1", "Potency": "inconclusive [inhibitor, single point]"}
{"smiles": "CC1(C)CC(=O)C2=C(C1)NC(=O)CC2c1ccc(F)cc1", "note": "(stereo not given)", "activity change, negative = inhibition": "inactive: -3.25%"}
{"smiles": "O=C1C=C(Nc2ccc(Cl)cc2)CC(c2ccco2)C1", "note": "(stereo not given)", "Potency": "inconclusive [inhibitor, single point]"}
{"smiles": "Cc1cc(C(C)(C)C)oc1C(=O)OCC(=O)NC1CCCCC1", "Potency": "inconclusive [inhibitor, single point]"}
{"smiles": "COC(=O)C1=C(C)N(c2ccc(Cl)c(Cl)c2)C(=O)C1", "Potency": "inconclusive [inhibitor, partial curve, poor fit]"}
{"smiles": "CCn1nc(C(=O)Nc2nc(-c3ccccn3)cs2)c2ccccc2c1=O", "Potency": "inconclusive [inhibitor, partial curve]"}
{"smiles": "COc1ccc(-c2noc(N3CCC(C(=O)NCc4ccccc4Cl)CC3)n2)cc1", "Potency": "inconclusive [inhibitor, partial curve]"}
{"smiles": "Cc1c(Cl)cnc(NC(=O)COC(=O)c2ccc([N+](=O)[O-])s2)c1Cl", "Potency": "inconclusive [inhibitor, single point]"}
{"smiles": "COc1ccccc1CNC(=O)C1CCC(CNc2c(N3CCC(C)CC3)c(=O)c2=O)CC1", "note": "(stereo not given)", "activity change, negative = inhibition": "inactive: 15.1%"}
{"smiles": "COc1cc(C(=O)NCc2ccc3[nH]c(C)cc3c2)cc(OC)c1OC", "Potency": "inconclusive [inhibitor, single point]"}
{"smiles": "O=C(CN1CCN(c2ccccc2O)CC1)Nc1ccc(S(=O)(=O)N2CCCCCC2)cc1", "Potency": "inconclusive [inhibitor, single point]"}
{"smiles": "CC1CCc2c(sc3ncnc(NCCCOC(C)C)c23)C1", "note": "(stereo not given)", "Potency": "active: 10 µM"}
{"smiles": "Cc1ccc(S(=O)(=O)CCC(=O)NNC(=O)CN(C)S(=O)(=O)c2ccc(C)cc2)cc1", "activity change, negative = inhibition": "inactive: 0.46%"}
{"smiles": "CC(=O)OC1C(OC(C)=O)N(C(C)=O)C(=O)N1C(C)=O", "note": "(stereo not given)", "activity change, negative = inhibition": "inactive: 15.2%"}
{"smiles": "COC(=O)C1=C[C@@H](C(=O)OC)[C@@H]2C3=C(C(=O)[C@]2(C)NC(=O)c2ccccc2)[C@H](C)n2c(=O)n(C)c(=O)n2[C@@H]3C1", "Potency": "inconclusive [inhibitor, single point]"}
{"smiles": "CC(OC(=O)c1cn(C)c2ccccc12)C(=O)N(C)c1ccccc1", "note": "(stereo not given)", "Potency": "inconclusive [inhibitor, single point]"}
{"smiles": "CC1=C(C#N)C(=O)N(C)C(C)(C)C1", "Potency": "inconclusive [inhibitor, single point]"}
{"smiles": "CC(=O)n1nc(-c2ccc(Cl)cc2)nc1NCc1ccco1", "activity change, negative = inhibition": "inactive: -27.9%"}
{"smiles": "N/C(=N\\OC(=O)Cc1ccc([N+](=O)[O-])cc1)c1cccc(Br)c1", "activity change, negative = inhibition": "inactive: 5.85%"}
{"smiles": "O=C(CSc1ncnc2c1cnn2-c1cccc(Cl)c1)NCC1CCCO1", "note": "(stereo not given)", "Potency": "inconclusive [inhibitor, full curve, poor fit]"}
{"smiles": "CCOC(=O)CCc1c(C)n[nH]c1C", "activity change, negative = inhibition": "inactive: 5.1%"}
{"smiles": "CC1(C)Cc2cccc(OCC(=O)N3CCN(c4ccccc4)CC3)c2O1", "Potency": "inconclusive [inhibitor, partial curve]"}
{"smiles": "CCCC(=O)Nc1nc(C)c(-c2csc(Nc3ccccc3OC)n2)s1", "Potency": "inconclusive [inhibitor, single point]"}
{"smiles": "Clc1ccc2nc(N3CCCCC3)sc2c1", "Potency": "inconclusive [inhibitor, partial curve]"}
{"smiles": "Cc1nn(-c2ccccc2)nc1C(=O)Nc1ccc2[nH]ncc2c1", "Potency": "inconclusive [inhibitor, partial curve]"}
{"smiles": "Cc1ccccc1-c1nc2cc(N)ccc2o1", "Potency": "inconclusive [inhibitor, single point]"}
{"smiles": "Cc1nn(CC(=O)N2CCCc3ccccc32)c(C)c1[N+](=O)[O-]", "activity change, negative = inhibition": "inactive: 17.7%"}
{"smiles": "Cc1ccc(-c2nn[nH]n2)cc1", "activity change, negative = inhibition": "inactive: 1.8%"}
{"smiles": "NC1=C(Cl)C(=O)c2ccc(S(N)(=O)=O)cc2C1=O", "Potency": "active: 0.562 µM"}
{"smiles": "NC(=O)CSc1nc2c(sc3ccccc32)c(=O)n1CCCC(=O)NCC1CCCO1", "note": "(stereo not given)", "activity change, negative = inhibition": "inactive: 12.2%"}
{"smiles": "CC1(C)C(C(=O)NN2C(=O)c3ccccc3C2=O)C1(C)C", "Potency": "inconclusive [inhibitor, single point]"}
{"smiles": "c1ccc(-c2nnc(CN3CCCc4ccccc43)o2)cc1", "Potency": "inconclusive [inhibitor, single point]"}
{"smiles": "Cn1cc(C(=O)N/N=C/C2=C(N3CCOCC3)C(=C/c3ccc([N+](=O)[O-])cc3)/CC2)ccc1=O", "Potency": "inconclusive [inhibitor, full curve]"}
{"smiles": "COC(=O)c1ccc(CN2CCC(Oc3ccc(C(=O)N4CCCCC4)cc3)CC2)cc1", "Potency": "inconclusive [inhibitor, partial curve]"}
